Measurements as given in the BET-seq Pho4 binding data (Le et al. 2018).
The list shows a part of the results. These are noisy estimates, calculated here from bound and input reads.

What follows are sequences tested against T1, Pho4 (S. cerevisiae) (UniProt P07270) (assay: relative binding free energy (BET-seq); higher = weaker binding). Details: reference: library average.
T1 sequence: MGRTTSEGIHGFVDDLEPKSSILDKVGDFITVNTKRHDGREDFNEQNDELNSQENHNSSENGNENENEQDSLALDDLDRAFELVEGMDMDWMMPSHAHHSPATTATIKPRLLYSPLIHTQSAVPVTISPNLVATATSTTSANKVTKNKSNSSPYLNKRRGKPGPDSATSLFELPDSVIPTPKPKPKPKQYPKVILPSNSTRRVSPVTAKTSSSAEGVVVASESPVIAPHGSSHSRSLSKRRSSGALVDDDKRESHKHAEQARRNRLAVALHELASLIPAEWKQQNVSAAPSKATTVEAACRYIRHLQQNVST

Relative binding free energy, 0.27 kcal/mol:
TACGTCACGTGATGTT
TATCTCACGTGGACGT
AATAACACGTGAGGTG
GGTAACACGTGAGGTT
TATATCACGTGATAAT

Relative binding free energy, -0.03 kcal/mol:
AACAGCACGTGTGTTG
TAAGGCACGTGTTTCA
TGCCACACGTGGTGGG
TATTGCACGTGGATAT

Relative binding free energy, 0.31 kcal/mol:
GTAGTCACGTGAGTCA

Relative binding free energy, -0.13 kcal/mol:
TGGGGCACGTGCGAGC
TGGGGCACGTGTCCTT
AGTCGCACGTGCTGTT

Relative binding free energy, 0.1 kcal/mol:
GTTAGCACGTGATGTA
GGTGTCACGTGCAGCG
GAGCGCACGTGTATGG
TATCACACGTGTTGGA
CGTATCACGTGTGGCG
TGTGTCACGTGTAAAG

Relative binding free energy, 0.29 kcal/mol:
GGGGTCACGTGACAGT

Relative binding free energy, 0.06 kcal/mol:
GCTGGCACGTGTTAAT
TTAGTCACGTGTATAA
AATAGCACGTGTGATT

Relative binding free energy, 0.2 kcal/mol:
CATTTCACGTGTTAAT
GTGCTCACGTGGTATG
GGCTTCACGTGTCGTG
ATGATCACGTGCGGTT
GTGGTCACGTGTAGTG

Relative binding free energy, 0.36 kcal/mol:
TCTTGCACGTGAAGTT
GCGGTCACGTGTAGTA
GGTCTCACGTGACGTG
GGCTTCACGTGTGAGT

Relative binding free energy, 0.32 kcal/mol:
GTATTCACGTGCTTTA
CGGGTCACGTGAAGCG
TTATTCACGTGAAGCT

Relative binding free energy, -0.09 kcal/mol:
TATTGCACGTGGTGGG

Relative binding free energy, 0.12 kcal/mol:
ATTTCCACGTGGTGGG
AGCTTCACGTGGGTAT
AGAGTCACGTGGACTG
TTAGTCACGTGTTTGG
GTAAGCACGTGTGAAG
CATTGCACGTGTATTA

Relative binding free energy, -0.22 kcal/mol:
TGGCGCACGTGCGGTT
TAGGGCACGTGCTGCG

Relative binding free energy, -0.02 kcal/mol:
CGGGACACGTGGAGTA
CTTGTCACGTGGGATA
AGTGTCACGTGGTGGT
AATAGCACGTGTCAGG
GTGAACACGTGTGCTG
TTCCGCACGTGTGGGA
TAATGCACGTGTGATA
GAGGCCACGTGTGTAG

Relative binding free energy, 0.03 kcal/mol:
TCATACACGTGTAGTT
GTGGACACGTGGGTTG
CTTAACACGTGTGGAG
TGTTGCACGTGGAGAA
TGTATCACGTGGGCTG
CATTACACGTGGTGTT

Relative binding free energy, 0.11 kcal/mol:
GATGTCACGTGTATTG
AGGATCACGTGGAGAT
GTTGTCACGTGGCCAG
GGTACCACGTGTGTTT

Relative binding free energy, -0.15 kcal/mol:
TTATGCACGTGGGTTA
AGTACCACGTGTTTGT

Relative binding free energy, 0.18 kcal/mol:
GAGGGCACGTGAAAGT
CGTGTCACGTGTTGAG
AAAGTCACGTGATTGG
GTTTCCACGTGTATGG
GTTTTCACGTGCGCTT
GCGGGCACGTGAAGTT
CGTAGCACGTGAAGGG

Relative binding free energy, -0.23 kcal/mol:
ACTGGCACGTGTTAGT

Relative binding free energy, 0.16 kcal/mol:
GCGGGCACGTGAGTGA

Relative binding free energy, 0.19 kcal/mol:
ATGGTCACGTGTCCGT
TTTATCACGTGTGGTG
ATATACACGTGAGTGG
GCGGTCACGTGGATTG

Relative binding free energy, 0.37 kcal/mol:
GGTTTCACGTGCGTCA
GGTAACACGTGAAGGG

Relative binding free energy, -0.11 kcal/mol:
TAACGCACGTGGTGGA
TGCAGCACGTGTGAGG
AGGGCCACGTGGTTAT

Relative binding free energy, 0.08 kcal/mol:
ATGAGCACGTGATGGG
CAATGCACGTGTGGGT
TTGTCCACGTGGTAAT
CAGTACACGTGGTGGC
GTATGCACGTGTAGTG

Relative binding free energy, 0.23 kcal/mol:
TGCTTCACGTGTTTAG
CTGTTCACGTGGCGAG
TAAAGCACGTGAGATT
ATGGACACGTGATTGT

Relative binding free energy, -0.29 kcal/mol:
ATTGACACGTGGTCGT

Relative binding free energy, 0.24 kcal/mol:
GAGGTCACGTGAGTGA
TGGGTCACGTGAGCTG
CTACTCACGTGTTGGT

Relative binding free energy, 0.09 kcal/mol:
TGAATCACGTGGGCCG
GATGACACGTGGTGGG
TGGTGCACGTGCTGAC
GGTAGCACGTGTCTGG
AGGGTCACGTGGGAAT
ATGTGCACGTGTGATT
ATATGCACGTGGAAAG

Relative binding free energy, 0.33 kcal/mol:
GGGCTCACGTGACGTG

Relative binding free energy, 0.22 kcal/mol:
GCGTTCACGTGGGGAT
GTTATCACGTGGCTAA
TGGTTCACGTGGGGTG
ACTATCACGTGTTGGT

Relative binding free energy, 0.3 kcal/mol:
TAGATCACGTGAGGTT

Relative binding free energy, 0.35 kcal/mol:
ATGCTCACGTGGGACT

Relative binding free energy, 0.15 kcal/mol:
TAAGACACGTGTTCTT
GAAGACACGTGGTGAG
TTTGACACGTGAGGAT
ATTGTCACGTGTTATT
AGGAACACGTGTGTCG

Relative binding free energy, -0.16 kcal/mol:
ATCGTCACGTGGGGCT
GCGGGCACGTGGGAGG
TAAAACACGTGGGTTG
ATGTCCACGTGGGTGG

Relative binding free energy, -0.05 kcal/mol:
TTTTGCACGTGGGTGA
TAGGTCACGTGTTCAG
AGTTGCACGTGTATAT
GTTGGCACGTGGTTTC
TTTTACACGTGGGACT

Relative binding free energy, 0.02 kcal/mol:
AAAGTCACGTGGCTGG
GTAAGCACGTGCTTTT
AAGGGCACGTGATTGA
TAAGTCACGTGGTAGT
TATATCACGTGTCAGG

Relative binding free energy, -0.21 kcal/mol:
TCTGCCACGTGGTGTT

Relative binding free energy, 0.49 kcal/mol:
AATATCACGTGAATAT

Relative binding free energy, -0.1 kcal/mol:
GAGCGCACGTGTTTTG
TTCGGCACGTGGGGTC
ATAGGCACGTGTGGAA
ATAAGCACGTGCTTTT

Relative binding free energy, 0.17 kcal/mol:
GTTGACACGTGTGGGT
GTATTCACGTGGCGTA
GATATCACGTGGAGTT
GATTACACGTGGGATG

Relative binding free energy, -0.19 kcal/mol:
TGGTGCACGTGGGGGA
GGGACCACGTGGGGAT

Relative binding free energy, 0.41 kcal/mol:
GTTTTCACGTGGACAG

Relative binding free energy, -0.17 kcal/mol:
ATGAGCACGTGGTGTG

Relative binding free energy, 0.28 kcal/mol:
TCTTTCACGTGAATTT

Relative binding free energy, 0.44 kcal/mol:
TGTTTCACGTGGATTA

Relative binding free energy, -0.04 kcal/mol:
ATGTACACGTGTTTAT
ATGGACACGTGGTGGG
TTGTGCACGTGGAGAA
GTATGCACGTGGTTGA
TTGGGCACGTGGTCGG
ATAAACACGTGGTGAT
TTGCGCACGTGGAAGT
AGCTTCACGTGGGCGG

Relative binding free energy, 0.04 kcal/mol:
TTAATCACGTGGTAGA
TGATCCACGTGGTGGC

Relative binding free energy, 0.07 kcal/mol:
GTTGACACGTGGTGTA
TTATACACGTGTATGA
TTTGACACGTGATGAA
GGGGACACGTGGACAT

Relative binding free energy, 0.39 kcal/mol:
GTGGTCACGTGATTGG

Relative binding free energy, -0.2 kcal/mol:
TGTTGCACGTGGCTTA
AATGGCACGTGGGTGT
GTGAGCACGTGGTATG

Relative binding free energy, -0.12 kcal/mol:
CTTGACACGTGGGGCT
TTGAGCACGTGGCAGG
TTGTGCACGTGCTTGC
GGGGGCACGTGTAGTA

Relative binding free energy, -0.14 kcal/mol:
GAAAGCACGTGGGATG
TTTGGCACGTGCTACG
TAAGGCACGTGCGTGT
ATATCCACGTGTTTGG
CGGAGCACGTGGTTGT
AACATCACGTGGGGGT

Relative binding free energy, 0.14 kcal/mol:
TTTGTCACGTGTCTGG
ATAGTCACGTGGAGAT

Relative binding free energy, 0.21 kcal/mol:
TCTTTCACGTGTTATA
GTTTACACGTGTAAGA
AAAGACACGTGATTTT
ATAGTCACGTGTGCGT

Relative binding free energy, -0.06 kcal/mol:
ATTGTCACGTGGATAG
CATGGCACGTGGACGG
GTTGGCACGTGGTATG

Relative binding free energy, -0.18 kcal/mol:
CGAAGCACGTGGGGAT

Relative binding free energy, 0.45 kcal/mol:
CTGTTCACGTGAGTAT

Relative binding free energy, 0.01 kcal/mol:
TTAAACACGTGGTCGT
TAAAACACGTGTTTAG
TTAGTCACGTGGGATC

Relative binding free energy, -0.08 kcal/mol:
GTGTACACGTGCGCGG
GTAAGCACGTGGGGCC
TCGGGCACGTGGGGCC
AATTGCACGTGTCAGT
GATAGCACGTGGTTGG
CTCTGCACGTGTTTGT

Relative binding free energy, 0.13 kcal/mol:
TTTGACACGTGTGGCC
GTGAACACGTGTGGTA
GTGGGCACGTGAGTCT
TGGATCACGTGTTATT

Relative binding free energy, -0.07 kcal/mol:
GATAGCACGTGGGAGC
TGTATCACGTGGGGGA
CGTAACACGTGGTAGG
TTATGCACGTGGAGGG
GGTAGCACGTGTACGG
ATTTGCACGTGGTCTG

Relative binding free energy, -0.25 kcal/mol:
CTGGGCACGTGCTAGG
ACACGCACGTGGGGTT

Relative binding free energy, 0.25 kcal/mol:
GACATCACGTGTGGGG
GGGTACACGTGTAATG
TTGTTCACGTGGTGTG
GGGAACACGTGTGATA

Relative binding free energy, -0.01 kcal/mol:
TGATGCACGTGTAGCG
TGTATCACGTGGGCAG
AGGGGCACGTGTTGGT

Relative binding free energy, 0 kcal/mol:
GTGCACACGTGTTAGG
CTTTACACGTGTTTTG
AAGGGCACGTGTGTTT
CGGGGCACGTGTGGAG
AGTGACACGTGGGAAA
TGTTACACGTGCAGTG
TATACCACGTGATGTT

Relative binding free energy, 0.38 kcal/mol:
GACTGCACGTGAGTGG
GTAATCACGTGAAGAG

Relative binding free energy, 0.34 kcal/mol:
GGGTTCACGTGCATTA
GCGTTCACGTGGATTG

Relative binding free energy, -0.26 kcal/mol:
TAAGGCACGTGGGCTA

Relative binding free energy, 0.26 kcal/mol:
ATAGTCACGTGGAAAT

Relative binding free energy, 0.05 kcal/mol:
CGAGCCACGTGAGGGG
TATGTCACGTGCGGTT
TGATACACGTGTGGAG
TAGTACACGTGGGGCG
GGCGGCACGTGATTTA

Relative binding free energy, -0.27 kcal/mol:
AGTGGCACGTGTGCTG
